# In the supplement of paper PMC8728848:
# This is one part of the list.
# Experiments:
# Test in all cases: glycan array binding signal (z-score within array); higher = stronger binding
# Conditions in all cases: glycan notation: IUPAC condensed, linker removed
# [1] = target: Kdn(a2-3)Gal(b1-3)GlcNAc
# How it was run: (§1)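 Glycan array data came from 3228 arrays in the Consortium for Functional Glycomics database, and only arrays with an available protein sequence were kept. Glycan names were put into IUPAC-condensed notation, and columns mapping to the same glycan were averaged. The binding signal is a within-array Z-score, averaged across arrays of one protein sequence run at different concentrations or buffers and across linkers. A negative Z-score can be read as non-binding.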
# [2] = target: Kdn(a2-3)Gal(b1-4)Glc
# How it was run: as §1
# [3] = target: Kdn(a2-3)Gal(b1-4)GlcNAc
# How it was run: as §1
# [4] = target: Kdn(a2-3)Gal(b1-4)[Fuc(a1-3)]GlcNAc
# How it was run: as §1
# [5] = target: Kdn(a2-6)Gal(b1-4)GlcNAc
# How it was run: as §1
# [6] = target: Man(a1-2)Man(a1-2)Man(a1-3)Man
# How it was run: as §1
# [7] = target: Man(a1-2)Man(a1-2)Man(a1-6)[Man(a1-3)]Man
# How it was run: as §1
# [8] = target: Man(a1-2)Man(a1-3)Man
# How it was run: as §1
# [9] = target: Man(a1-2)Man(a1-3)[Man(a1-2)Man(a1-6)]Man
# How it was run: as §1
# [10] = target: Man(a1-2)Man(a1-3)[Man(a1-2)Man(a1-6)]Man(a1-6)[Man(a1-2)Man(a1-2)Man(a1-3)]Man
# How it was run: as §1
# [11] = target: Man(a1-2)Man(a1-3)[Man(a1-2)Man(a1-6)]Man(a1-6)[Man(a1-2)Man(a1-2)Man(a1-3)]Man(b1-4)GlcNAc(b1-4)GlcNAc
# How it was run: as §1
# [12] = target: Man(a1-2)Man(a1-3)[Man(a1-6)]Man(a1-6)[Man(a1-2)Man(a1-3)]Man(b1-4)GlcNAc(b1-4)GlcNAc
# How it was run: as §1
# [13] = target: Man(a1-2)Man(a1-6)[Man(a1-3)]Man(a1-6)[Man(a1-2)Man(a1-2)Man(a1-3)]Man
# How it was run: as §1
# [14] = target: Man(a1-2)Man(a1-6)[Man(a1-3)]Man(a1-6)[Man(a1-2)Man(a1-2)Man(a1-3)]Man(b1-4)GlcNAc(b1-4)GlcNAc
# How it was run: as §1
# [15] = target: Man(a1-3)[Man(a1-6)]Man
# How it was run: as §1
# [16] = target: Man(a1-3)[Man(a1-6)]Man(a1-6)[Man(a1-2)Man(a1-3)]Man(b1-4)GlcNAc(b1-4)GlcNAc
# How it was run: as §1
# [17] = target: Man(a1-3)[Man(a1-6)]Man(a1-6)[Man(a1-3)]Man
# How it was run: as §1
# [18] = target: Man(a1-3)[Man(a1-6)]Man(a1-6)[Man(a1-3)]Man(b1-4)GlcNAc(b1-4)GlcNAc
# How it was run: as §1
# [19] = target: Man(a1-3)[Man(a1-6)]Man(b1-4)GlcNAc(b1-4)GlcNAc
# How it was run: as §1
# [20] = target: Man(a1-3)[Man(a1-6)]Man(b1-4)GlcNAc(b1-4)[Fuc(a1-6)]GlcNAc
# How it was run: as §1
# [21] = target: Man(a1-6)Man
# How it was run: as §1
# [22] = target: Man(b1-4)GlcNAc
# How it was run: as §1
# [23] = target: MurNAc(b1-4)GlcNAc
# How it was run: as §1
# [24] = target: Neu5Ac(a2-3)Gal
# How it was run: as §1
# [25] = target: Neu5Ac(a2-3)Gal(b1-3)GalNAc
# How it was run: as §1
# [26] = target: Neu5Ac(a2-3)Gal(b1-3)GalNAc(b1-3)Gal(a1-4)Gal(b1-4)Glc
# How it was run: as §1
# [27] = target: Neu5Ac(a2-3)Gal(b1-3)GalNAc(b1-3)Gal(b1-4)GlcNAc
# How it was run: as §1
# [28] = target: Neu5Ac(a2-3)Gal(b1-3)GalNAc(b1-4)[Neu5Ac(a2-3)]Gal(b1-4)Glc
# How it was run: as §1
# [29] = target: Neu5Ac(a2-3)Gal(b1-3)GalNAc(b1-4)[Neu5Ac(a2-8)Neu5Ac(a2-3)]Gal(b1-4)Glc
# How it was run: as §1
# [30] = target: Neu5Ac(a2-3)Gal(b1-3)GalNAc6S
# How it was run: as §1
# [31] = target: Neu5Ac(a2-3)Gal(b1-3)GlcNAc
# How it was run: as §1
# [32] = target: Neu5Ac(a2-3)Gal(b1-3)GlcNAc(b1-2)Man
# How it was run: as §1
# [33] = target: Neu5Ac(a2-3)Gal(b1-3)GlcNAc(b1-2)Man(a1-3)[GlcNAc(b1-4)][Neu5Ac(a2-3)Gal(b1-3)GlcNAc(b1-2)Man(a1-6)]Man(b1-4)GlcNAc(b1-4)GlcNAc
# How it was run: as §1
# [34] = target: Neu5Ac(a2-3)Gal(b1-3)GlcNAc(b1-2)Man(a1-3)[Neu5Ac(a2-3)Gal(b1-3)GlcNAc(b1-2)Man(a1-6)]Man(b1-4)GlcNAc(b1-4)GlcNAc
# How it was run: as §1
# [35] = target: Neu5Ac(a2-3)Gal(b1-3)GlcNAc(b1-3)Gal(b1-3)GlcNAc
# How it was run: as §1
# [36] = target: Neu5Ac(a2-3)Gal(b1-3)GlcNAc(b1-3)Gal(b1-4)GlcNAc
# How it was run: as §1
# [37] = target: Neu5Ac(a2-3)Gal(b1-3)GlcNAc(b1-3)GalNAc
# How it was run: as §1
# [38] = target: Neu5Ac(a2-3)Gal(b1-3)GlcNAc(b1-4)Gal(b1-4)Glc
# How it was run: as §1
# [39] = target: Neu5Ac(a2-3)Gal(b1-3)GlcNAc(b1-6)GalNAc
# How it was run: as §1
# [40] = target: Neu5Ac(a2-3)Gal(b1-3)GlcNAc6S
# How it was run: as §1
# [41] = target: Neu5Ac(a2-3)Gal(b1-3)[Fuc(a1-4)]GlcNAc
# How it was run: as §1
binder,measurement,setting,value
"NPA (Narcissus pseudonarcissus), C0HM45 (protein) DNILYSGETLSPGEFLNNGRYVFIMQEDCNLVLYDVDKPIWATNTGGLDRRCHLSMQSDGNLVVYSPRNNPIWASNTGGENGNYVCVLQKDRNVVIYGTARWATGTNIH",glycan array binding signal (z-score),[1],-0.164
same,glycan array binding signal (z-score),[2],-0.136
same,glycan array binding signal (z-score),[3],-0.151
same,glycan array binding signal (z-score),[4],-0.132
same,glycan array binding signal (z-score),[5],-0.147
same,glycan array binding signal (z-score),[6],0.268
same,glycan array binding signal (z-score),[7],0.568
same,glycan array binding signal (z-score),[8],-0.076
same,glycan array binding signal (z-score),[9],0.288
same,glycan array binding signal (z-score),[10],0.221
same,glycan array binding signal (z-score),[11],0.144
same,glycan array binding signal (z-score),[12],2.38
same,glycan array binding signal (z-score),[13],1.19
same,glycan array binding signal (z-score),[14],1.83
same,glycan array binding signal (z-score),[15],5.21
same,glycan array binding signal (z-score),[16],5.6
same,glycan array binding signal (z-score),[17],2.47
same,glycan array binding signal (z-score),[18],5.37
same,glycan array binding signal (z-score),[19],10.1
same,glycan array binding signal (z-score),[20],5.34
same,glycan array binding signal (z-score),[21],-0.132
same,glycan array binding signal (z-score),[22],-0.151
same,glycan array binding signal (z-score),[23],-0.137
same,glycan array binding signal (z-score),[24],-0.148
same,glycan array binding signal (z-score),[25],-0.161
same,glycan array binding signal (z-score),[26],-0.152
same,glycan array binding signal (z-score),[27],-0.194
same,glycan array binding signal (z-score),[28],-0.164
same,glycan array binding signal (z-score),[29],-0.134
same,glycan array binding signal (z-score),[30],-0.153
same,glycan array binding signal (z-score),[31],-0.155
same,glycan array binding signal (z-score),[32],-0.122
same,glycan array binding signal (z-score),[33],-0.074
same,glycan array binding signal (z-score),[34],-0.143
same,glycan array binding signal (z-score),[35],-0.15
same,glycan array binding signal (z-score),[36],-0.153
same,glycan array binding signal (z-score),[37],-0.14
same,glycan array binding signal (z-score),[38],-0.113
same,glycan array binding signal (z-score),[39],-0.143
same,glycan array binding signal (z-score),[40],-0.124
same,glycan array binding signal (z-score),[41],-0.16
